# Measured values published in the supplement of paper PMC8728848.
# Some of the results follow.
# B1: Gal 3 (Homo sapiens), P17931 (protein)
# chain: MADNFSLHDALSGSGNPNPQGWPGAWGNQPAGAGGYPGASYPGAYPGQAPPGAYPGQAPPGAYHGAPGAYPGAPAPGVYPGPPSGPGAYPSSGQPSAPGAYPATGPYGAPAGPLIVPYNLPLPGGVVPRMLITILGTVKPNANILDFQRGNDVAFHFNPRFNENNRRVIVCNTKLDNNWGREEIQSVFPFESGKPFKIQVLVEPDHFKVAVNDAHLLQYNHRVKKLNEISKLGISGDIDLTSASYTMI
# Legend:
# Assay in all cases: glycan array binding signal (z-score within array); higher = stronger binding
# Settings in all cases: glycan notation: IUPAC condensed, linker removed; mutation: R186I
# [1] = target: GlcNAc(b1-3)Gal(b1-4)GlcNAc(b1-3)Gal(b1-4)GlcNAc
# Summary of the method: (§1)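 From the Consortium for Functional Glycomics database, 3228 arrays were curated, keeping only those whose protein sequence was available. Binding is given as a within-array Z-score averaged across arrays sharing a protein sequence and across linkers. Negative Z-scores can be read as non-binding.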
# GlcNAc(b1-3)GalNAc = target: GlcNAc(b1-3)GalNAc
# Summary of the method: as §1
# GlcNAc(b1-3)Man = target: GlcNAc(b1-3)Man
# Summary of the method: as §1
# [2] = target: GlcNAc(b1-3)[GlcNAc(b1-4)][GlcNAc(b1-6)]GlcNAc
# Summary of the method: as §1
# [3] = target: GlcNAc(b1-3)[GlcNAc(b1-6)]Gal(b1-4)GlcNAc
# Summary of the method: as §1
# [4] = target: GlcNAc(b1-3)[GlcNAc(b1-6)]GalNAc
# Summary of the method: as §1
# [5] = target: GlcNAc(b1-4)Gal(b1-4)GlcNAc
# Summary of the method: as §1
# GlcNAc(b1-4)GlcNAc = target: GlcNAc(b1-4)GlcNAc
# Summary of the method: as §1
# [6] = target: GlcNAc(b1-4)GlcNAc(b1-4)GlcNAc
# Summary of the method: as §1
# [7] = target: GlcNAc(b1-4)GlcNAc(b1-4)GlcNAc(b1-4)GlcNAc(b1-4)GlcNAc
# Summary of the method: as §1
# [8] = target: GlcNAc(b1-4)GlcNAc(b1-4)GlcNAc(b1-4)GlcNAc(b1-4)GlcNAc(b1-4)GlcNAc
# Summary of the method: as §1
# [9] = target: GlcNAc(b1-4)[GlcNAc(b1-6)]GalNAc
# Summary of the method: as §1
# [10] = target: GlcNAc(b1-6)Gal(b1-4)GlcNAc
# Summary of the method: as §1
# GlcNAc(b1-6)GalNAc = target: GlcNAc(b1-6)GalNAc
# Summary of the method: as §1
# GlcNAc3Prop(b1-4)GlcNAc = target: GlcNAc3Prop(b1-4)GlcNAc
# Summary of the method: as §1
# [11] = target: GlcNAc6S(b1-3)Gal(b1-4)GlcNAc
# Summary of the method: as §1
# Kdn(a2-3)Gal(b1-3)GalNAc = target: Kdn(a2-3)Gal(b1-3)GalNAc
# Summary of the method: as §1
# Kdn(a2-3)Gal(b1-3)GlcNAc = target: Kdn(a2-3)Gal(b1-3)GlcNAc
# Summary of the method: as §1
# Kdn(a2-3)Gal(b1-4)Glc = target: Kdn(a2-3)Gal(b1-4)Glc
# Summary of the method: as §1
# Kdn(a2-3)Gal(b1-4)GlcNAc = target: Kdn(a2-3)Gal(b1-4)GlcNAc
# Summary of the method: as §1
# [12] = target: Kdn(a2-3)Gal(b1-4)[Fuc(a1-3)]GlcNAc
# Summary of the method: as §1
# Kdn(a2-6)Gal(b1-4)GlcNAc = target: Kdn(a2-6)Gal(b1-4)GlcNAc
# Summary of the method: as §1
# [13] = target: Man(a1-2)Man(a1-2)Man(a1-3)Man
# Summary of the method: as §1
# [14] = target: Man(a1-2)Man(a1-2)Man(a1-6)[Man(a1-3)]Man
# Summary of the method: as §1
# Man(a1-2)Man(a1-3)Man = target: Man(a1-2)Man(a1-3)Man
# Summary of the method: as §1
# [15] = target: Man(a1-2)Man(a1-3)[Man(a1-2)Man(a1-6)]Man
# Summary of the method: as §1
# [16] = target: Man(a1-2)Man(a1-3)[Man(a1-2)Man(a1-6)]Man(a1-6)[Man(a1-2)Man(a1-2)Man(a1-3)]Man
# Summary of the method: as §1
# [17] = target: Man(a1-2)Man(a1-3)[Man(a1-2)Man(a1-6)]Man(a1-6)[Man(a1-2)Man(a1-2)Man(a1-3)]Man(b1-4)GlcNAc(b1-4)GlcNAc
# Summary of the method: as §1
# [18] = target: Man(a1-2)Man(a1-3)[Man(a1-6)]Man(a1-6)[Man(a1-2)Man(a1-3)]Man(b1-4)GlcNAc(b1-4)GlcNAc
# Summary of the method: as §1
# [19] = target: Man(a1-2)Man(a1-6)[Man(a1-3)]Man(a1-6)[Man(a1-2)Man(a1-2)Man(a1-3)]Man
# Summary of the method: as §1
# [20] = target: Man(a1-2)Man(a1-6)[Man(a1-3)]Man(a1-6)[Man(a1-2)Man(a1-2)Man(a1-3)]Man(b1-4)GlcNAc(b1-4)GlcNAc
# Summary of the method: as §1
# Man(a1-3)[Man(a1-6)]Man = target: Man(a1-3)[Man(a1-6)]Man
# Summary of the method: as §1
# [21] = target: Man(a1-3)[Man(a1-6)]Man(a1-6)[Man(a1-2)Man(a1-3)]Man(b1-4)GlcNAc(b1-4)GlcNAc
# Summary of the method: as §1
# [22] = target: Man(a1-3)[Man(a1-6)]Man(a1-6)[Man(a1-3)]Man
# Summary of the method: as §1
# [23] = target: Man(a1-3)[Man(a1-6)]Man(a1-6)[Man(a1-3)]Man(b1-4)GlcNAc(b1-4)GlcNAc
# Summary of the method: as §1
# [24] = target: Man(a1-3)[Man(a1-6)]Man(b1-4)GlcNAc(b1-4)GlcNAc
# Summary of the method: as §1
# Man(a1-6)Man = target: Man(a1-6)Man
# Summary of the method: as §1
binder,measurement,setting,value
B1,glycan array binding signal (z-score),[1],-0.193
same,glycan array binding signal (z-score),GlcNAc(b1-3)GalNAc,-0.179
same,glycan array binding signal (z-score),GlcNAc(b1-3)Man,-0.189
same,glycan array binding signal (z-score),[2],-0.187
same,glycan array binding signal (z-score),[3],-0.177
same,glycan array binding signal (z-score),[4],-0.129
same,glycan array binding signal (z-score),[5],-0.131
same,glycan array binding signal (z-score),GlcNAc(b1-4)GlcNAc,-0.187
same,glycan array binding signal (z-score),[6],-0.173
same,glycan array binding signal (z-score),[7],-0.138
same,glycan array binding signal (z-score),[8],-0.195
same,glycan array binding signal (z-score),[9],-0.17
same,glycan array binding signal (z-score),[10],-0.188
same,glycan array binding signal (z-score),GlcNAc(b1-6)GalNAc,-0.169
same,glycan array binding signal (z-score),GlcNAc3Prop(b1-4)GlcNAc,-0.168
same,glycan array binding signal (z-score),[11],-0.172
same,glycan array binding signal (z-score),Kdn(a2-3)Gal(b1-3)GalNAc,-0.154
same,glycan array binding signal (z-score),Kdn(a2-3)Gal(b1-3)GlcNAc,-0.04
same,glycan array binding signal (z-score),Kdn(a2-3)Gal(b1-4)Glc,-0.187
same,glycan array binding signal (z-score),Kdn(a2-3)Gal(b1-4)GlcNAc,-0.189
same,glycan array binding signal (z-score),[12],-0.185
same,glycan array binding signal (z-score),Kdn(a2-6)Gal(b1-4)GlcNAc,-0.154
same,glycan array binding signal (z-score),[13],-0.105
same,glycan array binding signal (z-score),[14],-0.146
same,glycan array binding signal (z-score),Man(a1-2)Man(a1-3)Man,-0.107
same,glycan array binding signal (z-score),[15],-0.193
same,glycan array binding signal (z-score),[16],-0.075
same,glycan array binding signal (z-score),[17],-0.171
same,glycan array binding signal (z-score),[18],-0.193
same,glycan array binding signal (z-score),[19],-0.189
same,glycan array binding signal (z-score),[20],-0.036
same,glycan array binding signal (z-score),Man(a1-3)[Man(a1-6)]Man,-0.134
same,glycan array binding signal (z-score),[21],-0.178
same,glycan array binding signal (z-score),[22],-0.192
same,glycan array binding signal (z-score),[23],-0.159
same,glycan array binding signal (z-score),[24],-0.194
same,glycan array binding signal (z-score),Man(a1-6)Man,-0.185
